In ChEMBL document CHEMBL4888484, “Replenishing the malaria drug discovery pipeline: Screening and hit evaluation of the MMV Hit Generation Library 1 (HGL1) against asexual blood stage Plasmodium falciparum ,using a nano luciferase reporter read-out” (2022):
Several values for one entry are separate records, joined by “and”; a condition that tells them apart may be missing. Equal entries are not always repeated. Screen size: about 150,000 compounds; about 540 (0.36%) showed an effect of 50% or more. The list shows a part of the results.

System: Plasmodium falciparum
Assay: Primary screen in NF54 nanoGlo assay, in single point, at 2uM, 72h; a lower Z score goes with more inhibition
Format: functional, Erythrocyte
Settings: timepoint 72 hour

SMILES	% Inhibition	Z score	% Inhibition (2 µM)
O=C(N[C@@H]1CN(C2CCCC2)CC[C@@H]1CO)c1cccnc1	-16%	2.1	
COc1cc(Br)cc(C(=O)N2CCn3ncnc3C2)c1	-11%	1.54	
COc1cc(=O)n2c(c1C(=O)NCCC(C)C)CCN(C(=O)c1cnn(Cc3ccccc3)c1)CC2	-15%	1.66	
CCc1ccc(S(=O)(=O)N2CC(Oc3nc4ccccc4s3)C2)s1	-12%	1.32	
CC[C@H](NC(=O)Nc1ccccc1CCC(=O)NC)c1cn2cccnc2n1	-14%	2.11	
CC(C)[C@H]1CN(Cc2nnc(-c3ccccc3)o2)C[C@@H]1N(C)C	-6%	0.74	
COc1ccc(CN(C2CCCC2)S(=O)(=O)c2c(F)cccc2F)cc1OC(C)C	-15%	2.05	
CC(=O)N1CCN(C(=O)c2ccc(N(C)C)cc2)C[C@@H]1C(=O)N[C@@H](CC1CCCCC1)C(N)=O	2%	-0.29	
O=C(Nc1ccc(F)c(F)c1)c1cccn1Cc1noc(C2CC2)n1	-6%	1	
CC(C)Oc1ccc(CN2[C@H](CO)CN(C)C(=O)[C@@H]2C)cc1	-1%	0.13	
N#CC(NC(=O)c1cnn(-c2ccc(F)cc2)n1)C1CCOC1 (stereo unspecified)	8%	-0.87	
CC(=Cc1ccc2ncccc2c1)c1cnccn1	0%	0.07	
O=C(O)[C@H]1[C@@H]2CN(Cc3ccccc3OC(F)F)C[C@@H]21	-17%	1.54	
CCOC(=O)NCC(=O)Nc1nc2ccsc2s1	-8%	1.08	
CC(C)CCNC(=O)c1nc2cccnc2n(C)c1=O	-9%	1.06	
CCC(CO)Nc1cc(NC2CCCC2Cc2cnn(C)c2)ncn1 (stereo unspecified)	6%	-1.1	
CCN(CC)C(=O)N1CCC[C@H](CCc2nnc(-c3cnccn3)o2)C1	-19%	2.54	
CCCc1c(C(=O)NC[C@H]2CCN(C)C2)nnn1-c1ccc(C(C)(C)C)cc1	-2%	0.23	
Cc1cccc(-c2nn(-c3ccccc3)c3nc(OCC(=O)N4CCOCC4)cc(C)c23)c1	-16%	2.06	
COc1c(C)cc(-c2ccc(C(=O)N[C@@H](C)Cn3cncn3)cc2)cc1C	-21%	1.82	
O=S(=O)(c1ccc(-c2cc(C(F)(F)F)n[nH]2)s1)N1CCc2ccccc21	-4%	0.83	

SMILES	% Inhibition	Z score	% Inhibition (2 µM)
CS(=O)(=O)NCCC(=O)Nc1ccc2nscc2c1	12%	-1.62	
COc1ccc(OC)c([C@H](c2oc3ccccc3c2NC(=O)c2ccccc2)N2CCC(C)CC2)c1	-12%	1.9	
OC[C@@H]1CCC[C@H](CNCc2cc3ccc(F)cc3[nH]2)C1	1%	-0.15	
COc1ccc(-c2noc(CN3CCCc4cccc(F)c43)n2)cc1	-10%	0.9	
CC(=O)c1c(O)n(Nc2nc(C)cc(C)n2)c(C)cc1=O			-3% and -7%
O=C(c1cnc(CN2CCCC2)s1)N(Cc1ccncc1)C1CCCCC1	1%	-0.09	
Cc1nn(C)c(C)c1S(=O)(=O)N1CCc2nnc(C3CC3)n2CC1	-8%	1.6	
CN1C[C@@H]2CCC[C@H]1CN(C(=O)c1cc(Cl)ccc1O)C2	-14%	2.11	
COc1cccc(NC(=O)N[C@H]2CO[C@@H](CN3CCN(c4cccc(C(F)(F)F)c4)CC3)[C@@H]2O)c1	17%	-1.99	
Cn1ccnc1CN[C@H]1[C@H](O)[C@@H](n2cc(Cl)cn2)[C@@H]2OC[C@H]1O2	11%	-1.32	
Cc1noc(C)c1CNC(=O)[C@H]1CC[C@H](C)CC1	-12%	1.59	
CN(C)S(=O)(=O)n1cc(/C=C(\NC(=O)c2ccccc2F)C(=O)N2CCc3ccccc32)c2ccccc21	-13%	2.17	
COc1ccc(-c2noc3nc(C4CC4)cc(C(=O)Nc4ccn(C)n4)c23)cc1	31%	-3.49	
CCCn1ncc(C(=O)NCCCn2c(C)cccc2=O)c1C	-21%	2.14	
O=C(c1nn2c(C(F)(F)F)cc(-c3ccc(Br)cc3)nc2c1Br)N1CCN(Cc2ccccc2)CC1	-9%	1.34	
CN(CCN)c1nccc2ccc(F)cc12	12%	-1.26	
O=C(COc1ccc(Cl)cc1)Nc1cccc(NC(=O)c2ccccc2Cl)c1	-10%	1.31	
C/C=C(\C)c1nnc(NC(=O)OCC)s1	-25%	3	
CC(C)N1C2CCC1CN(C(=O)c1[nH]nc(C3CC3)c1Cl)CC2 (stereo unspecified)	-5%	0.6	
CCCN1C(=O)CC[C@@H]2CN(C(=O)c3cccc4[nH]c(C)nc34)CC[C@@H]21	-1%	0.18	
CC(C)N1CC2(CCN(C(=O)Cc3cccc(F)c3)CC2)[C@H]1c1ccccc1	0%	0.06	

SMILES	% Inhibition	Z score	% Inhibition (2 µM)
Cn1cnc2c(C(=O)Nc3cccc(C(F)(F)F)c3)nn(-c3ccc(F)cc3)c2c1=O	4%	-0.35	
CN(C)S(=O)(=O)c1ccc(N2CCCCC2)c(C(=O)NCc2ccc(N3CCCC3=O)cc2)c1	12%	-1.78	
Cc1cc(NC(=O)N2CCC[C@@H]2CCCO)no1	-7%	0.94	
Cn1cc(-c2cc(-c3cc(F)c(F)c(F)c3)nc(N)c2C#N)cn1	-6%	1.16	
O=C(Cc1ccccc1F)Nc1cc(-c2ccccn2)no1	-14%	1.34	
CN(Cc1ccc(Cl)s1)C[C@H](O)COCc1cccs1	2%	-0.35	
Cn1nccc1[C@@H]1CCCN1Cc1ccc(N)nc1	-14%	2.42	
COc1ccc(NC(=O)Nc2ccc3c(c2)CCN3S(=O)(=O)c2ccccc2)c(OC)c1	-5%	0.71	
COc1cccc(C2CN(C(=O)c3ccccc3)CC2C(=O)NCc2ccc(F)cc2)c1OC (stereo unspecified)	-11%	1.12	
Cc1nc(CN(C)C(=O)C[C@]2(c3ccccc3F)CC(=O)N(C3CCCCC3)C2=O)cs1	4%	-0.73	
COc1ncc(CNc2cccc3c2CCNC3=O)c(C)n1	-8%	1.3	
O=C(NCc1nc(Cn2cccn2)no1)NC1CCCCC1	-9%	1.23	
COCC1(CNC(=O)c2cnc(-c3csc(C)n3)nc2O)CCCC1	-13%	2.53	
O=S(=O)(Nc1ccn2ccnc2c1)c1cc(F)cc(Cl)c1	-1%	0.1	
CCc1c(C(=O)N(C)c2ncccc2F)nnn1-c1ccc(OC(C)C)cc1	-12%	1.22	
COCCc1nc(-c2ccc3c(c2)ncn3CCO)n(CC(F)(F)F)n1	-5%	0.94	
Nc1ccccc1-c1ccccc1N(c1ccccc1)c1ccccc1	-8%	0.97	
O=C(c1ccco1)N(Cc1ccccc1OS(=O)(=O)c1ccc(F)cc1)CC1CC1	-9%	1.17	
O=C(Nc1cccc(Cc2nn[nH]n2)c1)N[C@@H](C1CC1)C(F)(F)F	-4%	0.67	
COc1ccc2c(c1)CCN(c1cncc(C(=O)N3CCOCC3)n1)CC2	5%	-1.01	
COc1ccc(CN2C[C@@H](CO)[C@H](NC(=O)c3ccncc3)C2)cc1C	-10%	1.78	

SMILES	% Inhibition	Z score	% Inhibition (2 µM)
O=C(NCCn1nc(C2CC2)ccc1=O)c1cc(-c2cccc3ccccc23)n[nH]1	-9%	1.76	
COc1cccc(OCc2nc(C(=O)NCc3ccncc3C)co2)c1	-17%	1.84	
COCc1cc(=O)n(CC(=O)Nc2ccc(Cl)cc2)c(N2CCCC2)n1	5%	-0.75	
Cc1ccc(-c2cn[nH]c2[C@H]2CCCN(C(=O)c3cc4ncccn4n3)C2)cc1	5%	-0.71	
Cc1ccccc1OCC(=O)N1CCC[C@H](Oc2ncc(F)cn2)C1	8%	-1.1	
COc1cc(O)c(C(=O)Cc2csc(C)n2)cc1C	-4%	0.58	
CO[C@H]1CN(C(C)C)C[C@@H]1NC(=O)c1ccc(-c2cnc(N)nc2)cc1	-13%	1.81	
CC[C@H](C)N(Cc1csc(COc2ccccc2C)n1)C(=O)c1ccc(Cl)cc1	-3%	0.49	
O[C@@H](c1ncnn1-c1cccc(F)c1)C1CCCCC1	-11%	1.36	
CCN1CCN(C(C)(C)CNC(=O)C[C@H]2CCOC2)CC1	-11%	2.1	
CCCN1C[C@@H](NCc2ccccc2-c2ccc(C)o2)CC1=O	-5%	0.84	
O=C(COC[C@H]1CCCO1)N1CCC(c2ccc(F)c(F)c2)CC1	-12%	1.27	
CNc1ccnc(N2CCC3(CCC(=O)N([C@H]4CC[C@H](O)CC4)C3)CC2)n1	-2%	0.35	
CC1=C(C#Cc2ccccc2)c2ccccc2O[C@@]1(c1ccccc1)N1CCCCC1	-1%	0.11	
CCn1ccc(C(=O)N2CCC[C@H](CN3CCOCC3)CC2)n1	8%	-1.31	
COCCn1cc(C(=O)N[C@H]2CCCc3c2[nH]c2c(Cl)cccc32)c2ccccc2c1=O	5%	-0.6	
COCCN(CC#N)Cc1cccs1	-19%	1.97	
CC[C@H](C)C(=O)N1CCN(c2ncccc2-c2nnc(C(C)C)o2)CC1	-10%	0.94	
